# Measurements published in ChEMBL document CHEMBL4888484, “Replenishing the malaria drug discovery pipeline: Screening and hit evaluation of the MMV Hit Generation Library 1 (HGL1) against asexual blood stage Plasmodium falciparum ,using a nano luciferase reporter read-out” (2022).
# Among all 150,000 compounds or so, about 540 (0.36%) showed an effect of 50% or more. Some of the results follow.
# Test system: Plasmodium falciparum
# Test: Primary screen in NF54 nanoGlo assay, in single point, at 2uM, 72h; a lower Z score goes with more inhibition
# Assay type: functional, Erythrocyte
# Conditions: timepoint 72 hour
SMILES,% Inhibition [%],Z score
CC[C@@H](c1ccccn1)N(C)C(=O)c1nccn1C,-10,1.91
CC(NC(=O)NCCC1CCCCO1)c1noc(-c2ccccc2)n1 (stereo not drawn),-4,0.49
Cc1nn(-c2ccc3nncn3n2)c(C)c1CCC(=O)N1CCC(C)CC1,-7,0.9
CN(C(=O)c1nnc(C(C)(C)C)s1)C1CC1,2,-0.4
CCNC(=O)C[C@H]1CCCCN1C(=O)c1ccc(F)c2occc12,0,-0.04
C[C@@H]1CCC[C@H](C)N1Cc1nc(-c2cccnc2)no1,-13,2.57
COc1ccc(C(=O)Nc2cccc(-c3nnc4n3CCCC4)c2)cc1,-14,1.29
Cc1ccc(-n2nnnc2-c2ccc(-c3nnnn3-c3ccc(C)cc3)cc2)cc1,-6,0.85
N#Cc1ncn(CC(=O)NCCC2=CCCCC2)n1,-2,0.32
Cc1nc2c(C(=O)NCC3(S(C)(=O)=O)CCCC3)ccnc2[nH]1,1,-0.24
CC(C)(O)c1nc2ccccc2cc1N [ACLOPROXALAP],-2,0.23
CN(Cc1nccs1)Cc1noc2c1CCCC2,-22,2.37
O=C(Nc1c(C(=O)N2CCCCCC2)oc2ccccc12)c1ccccc1F,5,-0.54
O=C(NCCCNC(=O)c1cccc2nn[nH]c12)c1cccc(F)c1,-5,0.74
Cc1ccc2nccc(C(=O)N3CCC[C@H](C(=O)c4cccc5ccccc45)C3)c2c1,5,-0.68
O=C(c1ccco1)N1CC(OCc2cccc(F)c2)C1,-11,1.82
O=C(N1CCC(Oc2ccc(Cl)cn2)CC1)C1(c2ccccc2)CCOCC1,-23,4.38
CC[C@H]1CCCN(C(=O)COCC(F)(F)F)C1,-8,0.77
CC(CNC(=O)N1CCOCCC1C)c1ccc(F)c(F)c1 (stereo not drawn),-10,1.35
COc1ccccc1-c1noc(CN2CCC(C(=O)N3CCCCCC3)CC2)n1,5,-0.78
CC(C)C1=NN(Cc2ccc(F)cc2F)C(=O)C1,-11,1.08
Cc1nnc(CCNc2ncc(Cl)cc2Br)n1C,-5,0.51
CN(C)c1cnc(C(=O)N2CCCC[C@H]2c2nc3ccccc3o2)cn1,-9,0.88
Cc1cccc(NC(=O)N2CCc3[nH]c(-c4ccccc4)nc3C2)c1,-12,1.74
CC1CCN(C(=O)Nc2cccnc2)C(c2ccco2)C1 (stereo not drawn),-11,2.13
CC[C@@H](C(=O)Nc1nccs1)N1CCC2(CC1)CNC(=O)O2,-10,1.74
Cc1cc(C(=O)N2CCC3(CC2)CC(=O)N(C/C=C/c2ccccc2)C3)no1,-9,1.24

SMILES,% Inhibition [%],Z score
O=C(c1cc(-c2ccccc2)n[nH]1)N1Cc2cccnc2C1,-11,1.27
CC(C)(C)N1C[C@@H](NC(=O)COc2ccsc2)CC1=O,-11,2.02
COc1cccc(C(=O)N/C(=N/c2cc(C)ccc2C)N2CCN(CCC#N)CC2)c1,-1,0.14
Cc1nn(-c2ncnc3nc[nH]c23)c2c1[C@@]1(CC(=O)N2)C(=O)N(CCc2ccc3c(c2)CCO3)c2ccccc21,11,-1.37
O=C(O)c1ccc(S(=O)(=O)N2CCCCCCC2)cc1,1,-0.13
Cc1cccc(N2CCN(C(=O)[C@@H]3Cc4ccccc4O3)CC2)c1,-9,1.47
CC[C@H](C)c1cc(-c2nc(COCc3ccccc3)no2)on1,-11,2.11
Cc1ccc(-c2noc3c(N(c4ccc(C(C)C)cc4)c4nc(C)nc5c(-c6ccc(C)cc6)noc45)nc(C)nc23)cc1,-12,1.92
CCC[C@]1(CO)CCCN1Cc1ccco1,5,-0.66
Cc1nc(C)c(C)c(N2CCN(C[C@H]3CCCS3(=O)=O)CC2)n1,5,-1.02
CN1CCN(S(=O)(=O)N2CCc3[nH]c(-c4ccccc4)nc3C2)CC1,-4,0.34
COc1ccc(CCNC(=O)c2ccc(Cn3c(=O)c4ccccc4n(CC(=O)Nc4ccccc4C)c3=O)cc2)cc1OC,-14,1.59
O=C(Cc1ccc2c(c1)OCO2)N1CCC[C@@H]1Cn1nccn1,0,0.06
C=CCN(c1nc2nc(C)cc(C)n2n1)S(=O)(=O)c1ccc(Cl)cc1,-6,0.57
Cc1cnc(N[C@@H](C)c2cncc(F)c2)nc1C,-8,1.04
Cc1noc(C)c1CC(=O)N1CC[C@H](Oc2cncc(N(C)C)n2)C1,2,-0.27
O=C1CC[C@H](NC(=O)c2coc(C3CCCC3)n2)C(=O)N1,9,-1.04
C[C@H](NC(=O)Nc1ccnn1C)C1CCOCC1,-2,0.25
O=C(N[C@H]1Cc2ccc(Cl)cc2C1)c1cc(-n2ccnc2)ccn1,-4,0.51
CC(COc1ccc(F)c(F)c1)N[C@@H]1C=C[C@H](CO)C1 (stereo partly drawn),-10,1.22
CC[C@@H](C(=O)O)N1CCN(C2CCCC2)CC1,-7,0.9
COc1ccc2oc(C)c(-c3nc(C4CC4)no3)c2c1,-5,0.59
COc1ncccc1C(=O)OCc1nnc(C2CC2)o1,-11,1.09
O=C([C@@H]1CCCO1)N1CCc2ccc(F)c(Br)c2C1,-1,0.15
CCc1nnc(-c2ccc(=O)n(CC(=O)N3CCN(c4ccccc4F)CC3)c2)o1,-2,0.41
c1cncc(-c2n[nH]c(CCn3cc(-c4ncc[nH]4)nn3)n2)c1,-2,0.44
O=C(CNC(=O)c1ccncc1)Nc1ccc2[nH]c(=O)[nH]c2c1,-19,2.08
